Consider 41 compounds from ChEMBL document CHEMBL4888484, “Replenishing the malaria drug discovery pipeline: Screening and hit evaluation of the MMV Hit Generation Library 1 (HGL1) against asexual blood stage Plasmodium falciparum ,using a nano luciferase reporter read-out” (2022).

The whole screen tested about 150,000 compounds, of which about 540 (0.36%) showed an effect of 50% or more. Some of the results follow.

For the assay, the system named is Plasmodium falciparum. Nature of the assay: Primary screen in NF54 nanoGlo assay, in single point, at 2uM, 72h; a lower Z score goes with more inhibition. It counts as functional, Erythrocyte. As to conditions: timepoint 72 hour.
For the compound `FC(F)(F)c1cccc(C2(c3nnc(-c4ccccc4)o3)CCOCC2)c1`, the “% Inhibition” value is on record as -9% and the Z score was found to be 1.56.
Consider `Cc1[nH]nc(C(N)=O)c1NC(=O)CCc1ccc(Cl)s1`, for which the “% Inhibition” value was found to be 1% and the Z score was -0.11.
The corresponding values for `O=C(c1nnc(-c2csc(S(=O)(=O)N3CCCC3)c2)o1)N1CCCCC1` are -1% and 0.13.
On to `Cc1c(-c2ccc(F)cc2)nn(Cn2cc(Cl)cn2)c1-c1ccc(F)cc1`, for which the “% Inhibition” value was determined as 33% and the Z score is -3.68.
The corresponding values for `Cc1csc(CCNC(=O)c2c(C)c(C)n[nH]c2=O)n1` are -4% and 0.68.
The corresponding values for `CN(C)S(=O)(=O)N1CCCC[C@H](NC(=O)c2ccsc2)C1` are -9% and 0.9.
The corresponding values for `C=CCN1C[C@@H](C(=O)N2CCc3[nH]c(-c4ccccc4)nc3C2)CC1=O` are -3% and 0.62.
Turning to `CC(C)[C@H](C)NC(=O)N(C)CCCc1nccn1C`, the “% Inhibition” value is -7% and the Z score amounted to 1.33.
The corresponding values for `O=C(NCCN1CCCCC1)c1ccc(OCc2nnc(C(=O)Nc3ccccc3F)s2)cc1` are -12% and 1.09.
As for `O=C(C1CCCC1)N1CCC2(CC1)NCC(=O)N2Cc1cccc(C(F)(F)F)c1`, the “% Inhibition” value is recorded as -6% and the Z score is 0.68.
With `CCOC(=O)c1[nH]cnc1C(F)(F)F`, the “% Inhibition” value was -3% and the Z score was determined as 0.41.
The corresponding values for `O=C(Nc1cc(-c2ccccn2)no1)C1CCCC1` are -18% and 1.69.
The corresponding values for `CCc1noc(C(C)N(C)CC2CCN(Cc3ccc(C)s3)C2)n1` (configuration not stated) are 3% and -0.52.
The corresponding values for `CN1CCCC[C@@H]1CCC(=O)N1CC(OCc2ccccc2)C1` are -8% and 1.48.
On to `O=C(Cc1cccnc1)N1CCC(F)(C(=O)N2CCCC2)CC1`, for which the “% Inhibition” value is -4% and the Z score is given as 0.57.
The corresponding values for `CC(=O)Nc1ccc(C(=O)OCC2CCCCC2)cc1` are -7% and 1.15.
On to `CN1CCC[C@H](CCC(=O)N(C)CCCc2cnn(C)c2)C1`, for which the “% Inhibition” value is given as -6% and the Z score is given as 1.11.
For the compound `CN(CC(=O)N1CCC2(CCC(=O)N(Cc3ccccc3)C2)CC1)C(N)=O`, the “% Inhibition” value is recorded as -14% and the Z score amounted to 2.67.
The corresponding values for `COc1ccc(C2=NN(C(=O)CN(CCN3CCOCC3)C(=O)CC(C)(C)C)[C@H](c3ccc4c(c3)OCO4)C2)cc1` are -11% and 1.49.
Turning to `COc1cc(-c2noc(C)n2)ccc1OCc1cccc(C)c1`, the “% Inhibition” value was -8% and the Z score stood at 1.41.
The corresponding values for `c1cc2c(cc1-c1nnc3n1CCCC3)OCCO2` are 29% and -3.93.
The corresponding values for `CN1C(=O)COc2c(NC(=O)NC3CC3)cccc21` are -10% and 1.3.
The corresponding values for `O=C1c2ccccc2C(=O)N1CCCCN(C(=O)c1ccc(S(=O)(=O)N2CCOCC2)cc1)c1ccc(Cl)cc1` are 5% and -0.68.
As to `CCc1noc(C)c1C(=O)Nc1cccc(Oc2cccnn2)c1`, the “% Inhibition” value is -15% and the Z score came to 2.44.
For the compound `CCCCN1CCN(C(=O)c2ccc3ncsc3c2)CC1=O`, the “% Inhibition” value is reported as -13% and the Z score was determined as 1.77.
The corresponding values for `O=C(O)C1CCN(c2cc(-n3ccc4ccccc43)ncn2)CC1` are -1% and 0.2.
With `CC1CCC(CCC(=O)NCc2nc3ccccc3n2C2CC2)O1` (configuration not stated), the “% Inhibition” value came to 0% and the Z score is reported as -0.02.
The corresponding values for `O=C(c1ccc(=O)[nH]c1)N1CC[C@@]2(CCCN(Cc3ccc(F)c(F)c3)C2=O)C1` are -11% and 1.76.
The corresponding values for `COc1ccc(CN(C(=O)NCCN2CCCC2)C2CCCC2)cc1OC` are 0% and -0.09.
The corresponding values for `CCCn1cnnc1CN(C)C(=O)c1ccoc1C` are 19% and -2.4.
On to `Cc1ccsc1-c1nccn1Cc1c(C)noc1C`, for which the “% Inhibition” value is recorded as -17% and the Z score is on record as 1.68.
The corresponding values for `COc1cnc(C(=O)NCCc2ccccc2OC)cc1O` are 27% and -3.11.
The corresponding values for `O=C(CCc1cccs1)NCC1CCCC1` are -4% and 0.64.
With `CCOC[C@H]1CCN(Cc2nc3cc(Br)ccc3o2)C1`, the “% Inhibition” value is given as -5% and the Z score turned out to be 0.92.
The corresponding values for `Cc1cc(NC(=O)C(C)N2CCN(CC(C)O)CC2)on1` (configuration not stated) are -7% and 0.76.
Take `CN(C)C(=O)c1ccc(S(=O)(=O)NC2CCCCCC2)s1`: the “% Inhibition” value is -8% and the Z score amounted to 1.54.
The corresponding values for `COCCC(=O)N1CCC[C@@]2(CCC(=O)N(Cc3ccccn3)C2)C1` are -3% and 0.47.
`Cc1ccc(OCC(=O)Nc2cc(C)nn2-c2nc3c(cnn3-c3ccc(C)c(C)c3)c(=O)[nH]2)cc1`: the “% Inhibition” value turned out to be 44% and the Z score is -11.73.
The corresponding values for `CO[C@@]12CC[C@@H](NC(=O)C3CCC3)C[C@@H]1N(C(=O)CCn1cnnc1)CC2` are 1% and -0.12.
The corresponding values for `Cc1ccc(C(C)C)c(Oc2nc3ccccc3nc2N2CCOCC2)c1` are -16% and 1.82.
The corresponding values for `C[C@@H](C(=O)N(C)CC1CCOCC1)c1n[nH]c(=O)c2ccccc12` are -8% and 1.64.

As usually defined, the % Inhibition is the relative decrease from the control value, in per cent.
